# In PubChem BioAssay AID493208 (National Center for Advancing Translational Sciences (NCATS), 2011):
# The campaign covered roughly 44,000 compounds. About 340 (0.77%) were called active. Not shown: some 5% with an inconclusive outcome. Calls come from the whole dose curve; as a rule, active = well fitted inhibition curve with a large enough effect; inconclusive = small, poorly fitted or top-dose-only effect; inactive = flat fitted curve, though single readings scatter. This is one part of the list.
# Assay: Acumen qHTS Assay for Inhibitors of the mTORC1 Signaling Pathway in MEF (Tsc2-/-, p53-/-) Cells: Sytravon;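 note: plate controls were DMSO for no effect and rapamycin for full effect; nearly all actives have a fitted effect of over 50% in size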
# Conditions: phospho-rpS6 immunofluorescence/PI, 24 h; series mostly up to 38.3 µM; activity change, negative = inhibition: at the top concentration
# How it was run: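 Plate MEFs (Tsc2-/-, p53-/-, empty vector) in DMEM/10% FBS; after 24 h add compound, incubate 24 h at 37 degree Celsius; fix in PFA/TX-100, block, stain phospho-rpS6 and 10 uM PI; scan at 488 nm; report % positive cells.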
row,SMILES,"activity change, negative = inhibition"
1,CCOC(=O)c1cc(S(=O)(=O)N2CCN(c3ccc(OC)cc3)CC2)[nH]n1,inactive: 1.85%
2,Cc1ccc(Nc2c(-c3ccc(N4CCOCC4)cc3)nc3ncccn23)cc1,inactive: 15.9%
3,Cc1ccc(CNC(=O)c2c3c(nc4ccccc24)C(=O)N(C2CCCCC2)C3)cc1,inactive: 4.06%
4,COc1ccc(Cl)cc1NC(=O)CSc1nccn1Cc1ccco1,inactive: 3.19%
5,COc1cccc(NC(=O)CSc2nc3ccccc3nc2N2CCOCC2)c1,inactive: -6.71%
6,CCc1ccc(CN2C(=O)c3ccccc3C2C(=O)NCCc2ccc(OC)c(OC)c2)cc1 (configuration not stated),inactive: 1.83%
7,CN(CC(=O)Nc1cccc(C(F)(F)F)c1)S(=O)(=O)c1ccc2[nH]c3c(c2c1)CCCC3,inactive: -5%
8,Cc1csc2nc(COC(=O)c3ccccc3NC(=O)c3ccc(F)cc3)cc(=O)n12,inactive: 3.57%
9,COc1ccc(NC(=O)c2cc3c(=O)[nH]c4ccccc4c3n2C)cc1Cl,inactive: 0.808%
10,CCCN(C(=O)CCc1nc(-c2ccccc2F)no1)c1ccc(CC)cc1,inactive: -1.69%
11,Cc1ccc(C)c(N2CCN(C(=O)c3ccc(CS(=O)(=O)c4ccc(Br)cc4)o3)CC2)c1,inactive: -13.9%
12,CCOc1cc2[nH]c(=O)n(Cc3ccc(C(=O)NCCN(CC)CC)cc3)c(=O)c2cc1OCC,inactive: -1.86%
13,COc1ccc(CC(=O)NCc2nc3cccnc3n2Cc2ccc(F)cc2)cc1OC,inactive: -2.42%
14,Cc1ccc(S(=O)(=O)Nc2cc3c(cc2NCc2ccccc2)n(C)c(=O)n3C)c(C)c1,inactive: -0.101%
15,O=C(CCc1nc(CN2CCN(S(=O)(=O)c3ccc(Cl)cc3)CC2)no1)N1CCCCC1,inactive: -5.58%
16,Cc1cccc(Cn2c(SCc3ccc(C(=O)NCCc4ccccc4)cc3)nc3ccncc32)c1,inactive: 1.44%
17,CCc1cccc(C)c1NC(=O)Cn1ccn(-c2cccc(OC)c2)c(=O)c1=O,inactive: -4.4%
18,COc1ccc(-c2cc3nc(C)c(CCC(=O)Nc4ccccc4C(C)=O)c(C)n3n2)c(OC)c1,inactive: -5.33%
19,COc1ccc(-n2c(=O)c3c(c4cc(OC)ccc4n3C)n(Cc3cccc(OC)c3)c2=O)cc1,inactive: -1.32%
20,O=C(CCC1N=C2c3ccccc3N=C(SCc3ccc(F)cc3)N2C1=O)NCc1ccc(F)cc1 (configuration not stated),inactive: 0.54%
21,Fc1cccc(-n2ncc3c2ncn2nc(COc4ccc(Cl)cc4)nc32)c1,inactive: 3.78%
22,CCCC1=Nc2cc(C(=O)NCc3ccc(OC)cc3)ccc2Sc2ccc(C)cc21,inactive: -14.1%
23,O=C(CSCc1cccc(F)c1)NCc1ccccc1,inactive: 7.64%
24,CCC(C(=O)Nc1cc(OC)cc(OC)c1)n1nc(-c2ccc(C)c(C)c2)ccc1=O (configuration not stated),inactive: -4.81%

row,SMILES,"activity change, negative = inhibition"
1,Cc1nc2scc(C)n2c(=O)c1S(=O)(=O)Nc1ccc(N2CCOCC2)c(Cl)c1,inactive: -29%
2,CCOc1ccc(-c2nc(CSCC(=O)N3CCN(c4ccc(F)cc4)CC3)c(C)o2)cc1,inactive: -7.1%
3,CCOc1ccc(C(=O)NCCn2cc(SCC(=O)Nc3ccc4c(c3)OCCO4)c3ccccc32)cc1,inactive: -2.67%
4,CN1CCc2c(sc3c2C(=O)NC(c2ccc(OC(=O)c4ccc(C(C)(C)C)cc4)cc2)N3)C1 (configuration not stated),inactive: -7.5%
5,COc1cc(NC(=O)Cn2c(=O)n(Cc3ccco3)c(=O)c3sc4ccccc4c32)cc(OC)c1,inactive: -14.4%
6,COCCCNc1oc(/C=C/c2cc(OC)c(OC)c(OC)c2)nc1C#N,inactive: 4.63%
7,CCN(CC)C(=O)c1sc2c(c1C)c(=O)n(-c1ccc(Cl)c(Cl)c1)c(=O)n2Cc1ccccc1C#N,inactive: -4.42%
8,Cc1ccc(N2CCN(C(=O)c3c(C)oc4ncn(CC(C)C)c(=O)c34)CC2)c(C)c1,inactive: 2.02%
9,CCC(C)NC(=O)c1cc(-c2cccc(OC)c2)on1 (configuration not stated),inactive: -10.5%
10,Cc1cccc(NC(=O)CSc2ncc3c(n2)-c2ccccc2N(Cc2ccc(F)cc2)S3(=O)=O)c1C,inactive: -5.95%
11,Cc1cc(-c2ccc(C)c(S(=O)(=O)N3CCN(c4cccc(C(F)(F)F)c4)CC3)c2)on1,inactive: 4.98%
12,Cc1cccc(CCNC(=O)c2ccc3c(c2)N(Cc2ccccc2F)C(=O)c2ccccc2S3)c1,inactive: -3.39%
13,Cc1ccc(Oc2c(C(F)(F)F)oc3c(CN4CCC(C)CC4)c(O)ccc3c2=O)cc1,inactive: 4%
14,CCc1cccc(NC(=O)CCC(=O)N2CCSc3ccccc32)c1,inactive: -22.2%
15,CN(C)c1ccc(-c2nc(-c3cc4cc(Cl)ccc4oc3=O)cs2)cc1,inactive: -3.05%
16,Cc1cc2ccccc2n1-c1ccc(C(=O)N2CCC(C(=O)NCc3ccc(Cl)cc3)CC2)s1,inactive: 0%
17,CC(=O)N1CCCc2cc(S(=O)(=O)N3CCC(C(=O)Nc4cccc(Cl)c4C)CC3)ccc21,inactive: 1.12%
18,CCN(CC)C(=O)c1c(-c2ccccc2)c(-c2ccccc2)nn(C)c1=O,inactive: 1.54%
19,CCc1ccc(C(=O)c2cn(CC(=O)Nc3cc(C)ccc3C)c3nc(C)ccc3c2=O)cc1,inactive: -0.896%
20,O=C(CSc1nnc(-c2cccs2)o1)Oc1ccccc1,inactive: 0.0248%
21,COc1ccc(N2CCN(C(=O)CCn3nc(C)c(S(=O)(=O)N4CCCC4)c3C)CC2)cc1,inactive: 0%
22,O=C(CSc1nnc(-c2ccccc2)o1)c1cccc([N+](=O)[O-])c1,inactive: -11.6%
23,O=C(Cn1ncc2c3ccccc3n(Cc3ccc(Cl)cc3)c2c1=O)NCc1ccccn1,inactive: -0.708%
